Screen size: about 310,000 compounds; about 2,200 (0.71%) showed an effect of 50% or more. Effects have a minus sign here. The list shows a part of the results.
biological target: human ether-à-go-go-related gene (hERG) potassium channel (human, UniProt Q12809); assay: primary screen, population patch clamp on CHO cells stably expressing hERG
Sequence (Q12809 whole entry, looked up): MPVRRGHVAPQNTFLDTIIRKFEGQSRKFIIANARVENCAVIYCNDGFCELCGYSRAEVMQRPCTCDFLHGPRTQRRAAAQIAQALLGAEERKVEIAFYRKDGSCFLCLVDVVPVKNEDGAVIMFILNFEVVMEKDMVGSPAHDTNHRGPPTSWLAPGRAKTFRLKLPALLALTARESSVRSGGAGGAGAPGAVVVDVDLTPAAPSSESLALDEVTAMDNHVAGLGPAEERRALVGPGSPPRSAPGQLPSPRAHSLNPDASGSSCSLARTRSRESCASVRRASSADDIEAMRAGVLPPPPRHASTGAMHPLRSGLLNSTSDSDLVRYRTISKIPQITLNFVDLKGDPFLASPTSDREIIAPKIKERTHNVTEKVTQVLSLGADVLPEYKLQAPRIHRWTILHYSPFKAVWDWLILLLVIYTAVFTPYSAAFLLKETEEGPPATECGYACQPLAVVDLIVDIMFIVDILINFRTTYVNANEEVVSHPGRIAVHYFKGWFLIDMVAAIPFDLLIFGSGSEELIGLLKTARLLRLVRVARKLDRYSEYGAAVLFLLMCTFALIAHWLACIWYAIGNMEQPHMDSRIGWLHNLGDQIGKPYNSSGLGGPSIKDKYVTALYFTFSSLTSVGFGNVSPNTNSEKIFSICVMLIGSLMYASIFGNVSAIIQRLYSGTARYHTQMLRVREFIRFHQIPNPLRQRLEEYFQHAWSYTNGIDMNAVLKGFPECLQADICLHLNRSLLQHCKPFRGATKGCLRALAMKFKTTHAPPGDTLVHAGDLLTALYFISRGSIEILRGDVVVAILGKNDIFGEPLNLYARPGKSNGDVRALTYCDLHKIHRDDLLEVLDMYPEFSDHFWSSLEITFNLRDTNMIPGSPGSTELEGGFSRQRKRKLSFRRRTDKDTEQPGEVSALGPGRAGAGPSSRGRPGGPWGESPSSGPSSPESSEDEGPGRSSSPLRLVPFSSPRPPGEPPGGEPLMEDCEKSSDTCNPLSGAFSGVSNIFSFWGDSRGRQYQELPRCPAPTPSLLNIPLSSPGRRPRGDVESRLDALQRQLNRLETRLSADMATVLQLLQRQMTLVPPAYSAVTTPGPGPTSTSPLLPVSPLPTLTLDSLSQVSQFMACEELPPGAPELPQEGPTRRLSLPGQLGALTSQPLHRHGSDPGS

Compound	hERG current change (%, negative = inhibition) at 1uM [%]
COC(=O)c1ccccc1Oc1ccc(NC(=O)C(C)(C)CCl)cc1	-12.3
Cc1cc(=O)[nH]c(N2CCc3ccccc3C2)n1	3.65
Cc1cccc(NC(=O)c2c(F)c(F)c(F)c(F)c2F)c1	-0.482
Cc1nn(Cc2ccc(Cl)cc2Cl)c(C)c1NC(=O)NC12CC3CC(CC(C3)C1)C2	12.8
Cn1nc(-c2ccc(C(=O)Nc3ccc(F)cc3)cc2)c2ccccc2c1=O	1.3
COc1ccc(/C=N/N=C2\SC(CC(=O)O)C(=O)N2c2ccccc2)c(OC)c1 (stereo not shown)	-3.43
CCC(C)[C@H](N)c1cn([C@@H](Cc2cc3ccccc3[nH]2)C(=O)N2CCNCC2)nn1.Cl (stereo partly shown)	12.3
CCOC(=O)CSC1=C(C#N)C(=O)NC(c2ccc(OC)cc2)S1 (stereo not shown)	16.4
CN(CC(=O)NC(=O)NC1CCCCC1)Cc1ccccc1	7.61
Cc1ccc(-n2c(SCC(=O)Nc3ccc4c(c3)OCO4)nnc2-c2ccccn2)cc1	8
O=C(Nc1cccc(S(=O)(=O)N2CCCCC2)c1)c1ccc([N+](=O)[O-])o1	3.44
O=C(CCC(=O)c1cccs1)NCc1ccccc1	12.7
CCn1c(N2CCN(C(=S)NCC(C)C)CC2)nc2ccccc21	-13.8
COc1cc(SC)ccc1C(=O)Nc1ccccn1	3.02
O=C(CCCSc1nc2ccccc2[nH]1)NC(c1ccccc1)c1ccccc1	-8.62
CC(C)n1ncc2c(C(=O)Nc3ccc(S(N)(=O)=O)cc3)cc(C3CC3)nc21	5.76
NC(=O)N/N=C/c1c(Sc2nnnn2-c2ccccc2)nc2ccccn2c1=O	3.37
Brc1ccc(-c2csc(-c3c[nH]c4ccccc34)n2)cc1	12.1
O=C(CSc1nc2ccccc2c(=O)n1NC(=O)Cc1ccccc1)NCc1ccccc1Cl	-1.02
COc1ccc(C2=NN(C(=O)c3ccccc3C(=O)O)C(c3ccccc3O)C2)cc1 (stereo not shown)	0.318
O=C(CCS(=O)(=O)Cc1ccc(Cl)cc1)NCCCN1CCOCC1	0.677
COP(=O)(c1ccc(N(C)C)cc1)C(O)c1ccccc1 (stereo not shown)	9.86
CC1(C)Cc2c(C#N)c(N3CCCC3)nc(-c3ccco3)c2CO1	16.2
O=C1OC(/C(=C\Nc2cc(Cl)ccc2O)[N+](=O)[O-])c2ccccc21 (stereo not shown)	11.8
Cc1ccc(S(N)(=O)=O)c(C)c1N1CCCC1=O	18.7
CN1CCN(S(=O)(=O)c2ccc(NC(=S)NC(=O)C3CCCC3)cc2)CC1	14.4
O=S(=O)(Nc1ncccn1)c1ccc(NC(=S)Nc2ccccc2Cl)cc1	14.3
Br.O=C(CN1CCCCC1)c1ccccc1F	15.5

Compound	hERG current change (%, negative = inhibition) at 1uM [%]
Cc1cc(C2C(C#N)=C(N)OC3=C2C(=O)CC(C)(C)C3)c(C)s1 (stereo not shown)	0.138
O=C(O)/C=C/C(=O)NC1CCS(=O)(=O)C1 (stereo not shown)	5.36
CC(NC(=S)Nc1ccccc1Cl)C(c1cccs1)N1CCCC1 (stereo not shown)	-3.4
CCOC(=O)c1cccc(NC(=O)CSc2nnc(COc3ccccc3C)o2)c1	8.63
CC(C)(C)[C@@H]1C=C(C(=O)Nc2ccccc2)O[C@H](OCc2ccc(CO)cc2)C1	15.4
O=C(COC(=O)c1ccc[nH]c1=O)c1ccc(Cl)s1	11.7
COc1ccc(CCNC(=O)CSc2nc(C)nc3c2oc2ccccc23)cc1OC	1.3
CSc1cccc(CN2CCC(CCC(=O)NC3CC3)CC2)c1	-37.9
Cc1ccc2cc(/C=C/C(=O)c3ccco3)c(Cl)nc2c1	13.8
Cc1cc(NS(=O)(=O)c2ccc(NC(=O)c3cccnc3)cc2)nc(C)n1	-0.403
Cc1c(Cl)cccc1NC(=O)CC(C(=O)O)C1CCCO1 (stereo not shown)	0.279
COc1ccc(OC)c(CN2CCN(Cc3cccc4ccccc34)CC2)c1.O=C(O)C(=O)O	-4.64
Cc1oc2nc(SCCCC(=O)NCCO)nc(N)c2c1C	4.63
CCC(C)[C@H](NC(=O)Nc1ccc2c(c1)OCCO2)C(=O)OC (stereo partly shown)	4.48
Cc1nnc(SCC(=O)N/N=C/c2cn(-c3ccccc3)nc2-c2ccccc2)n1-c1ccccc1	7.43
COc1ccc(CC(=O)N2CCN(c3ccc(F)cc3)CC2)cc1	8.38
CCc1ccc(N(C(C)=O)c2nc(CCl)cs2)cc1	9.33
COC(=O)c1cn(-c2ccc(F)cc2)c(=O)c2ccccc12	5.17
COc1c(N2CCN(C(=S)NCc3ccccc3)C(C)C2)c(F)cc2c(=O)c(C(=O)O)cn(C3CC3)c12 (stereo not shown)	4.87
CC(=O)c1cc(CN2CCC(n3nccc3NC(=O)c3ccccc3C)CC2)cs1	-15.8
COc1ccc(/C=C2\CN(Cc3ccccc3)C/C(=C\c3ccc(OC)cc3)C2=O)cc1	8.07
CC1CC(C)CN(CC(=O)N2CCc3[nH]c4ccccc4c3C2)C1 (stereo not shown)	-7.73
CCN(CC)S(=O)(=O)c1cccc(C(=O)NNC(=O)c2ccc3[nH]c(=O)c(=O)[nH]c3c2)c1	7.86
Cc1ccccc1OCCN1C(=O)C(=O)c2cccc(C)c21	14.5
O=C(NC1=NCCS1)c1cc(-c2cccs2)nc2ccccc12	9.11
CC(=O)Nc1ccc(Nc2nc3c(S(=O)(=O)c4ccc(C)c(C)c4)nnn3c3ccccc23)cc1	6.05
CC1CCCCC1NC(=O)C1CCC(CNS(=O)(=O)c2ccc(F)cc2)CC1 (stereo not shown)	8.79
